{"source": "the supplement of paper PMC3334620", "note": "In all, about 33,000 sequences were measured (“E-score (-0.5 to 0.5)”: median about -0.017, highest 2% from about 0.3 on). The list shows a part of the results."}
{"target": "T1, Sut1 (UniProt P53032)", "T1 sequence": "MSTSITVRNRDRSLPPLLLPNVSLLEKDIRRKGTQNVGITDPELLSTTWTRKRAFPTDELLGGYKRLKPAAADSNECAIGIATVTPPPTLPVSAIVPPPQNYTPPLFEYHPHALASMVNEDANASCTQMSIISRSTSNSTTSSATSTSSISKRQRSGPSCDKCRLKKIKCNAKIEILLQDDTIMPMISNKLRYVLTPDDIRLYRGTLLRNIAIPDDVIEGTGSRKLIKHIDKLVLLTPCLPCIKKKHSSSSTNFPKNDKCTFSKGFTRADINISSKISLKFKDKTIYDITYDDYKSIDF", "experiment": "PBM E-score (8-mer binding enrichment) (E-score (-0.5 to 0.5)); higher = stronger / more preferred TF binding; most listed sequences are background and not binding sites", "details": "protein concentration: 200 nM; construct: GST-full length", "description": "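Universal 'all 10-mer' protein binding microarrays (Agilent AMADID 015681) probed with GST-tagged S. cerevisiae TFs (full-length or DBD) made by in vitro transcription/translation (PURExpress), about 100-200 nM. Bound TF was detected with fluorescent anti-GST. Each ungapped 8-mer (which stands for itself and its reverse complement) is scored by the PBM enrichment score (E-score), a modified Wilcoxon-Mann-Whitney statistic from -0.5 to +0.5, computed with the Universal PBM Analysis Suite. Scale: above 0.35 generally sequence-specific binding.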"}
{"sequence": "GGAGTCAA", "PBM E-score": 0.134}
{"sequence": "AGATTGTC", "PBM E-score": 0.0787}
{"sequence": "ACCAGAGA", "PBM E-score": -0.075}
{"sequence": "ACTGGACG", "PBM E-score": -0.186}
{"sequence": "CAGCTGGA", "PBM E-score": -0.104}
{"sequence": "GTTAACGA", "PBM E-score": -0.028}
{"sequence": "GGCGAATA", "PBM E-score": -0.0185}
{"sequence": "GCACTAAA", "PBM E-score": 0.228}
{"sequence": "AGTATTAT", "PBM E-score": 0.0963}
{"sequence": "GCTAGGCC", "PBM E-score": -0.203}
{"sequence": "AACTATGG", "PBM E-score": -0.0313}
{"sequence": "AGAACTTC", "PBM E-score": 0.0323}
{"sequence": "CTATTTGA", "PBM E-score": 0.206}
{"sequence": "AACTAGGA", "PBM E-score": 0.0329}
{"sequence": "CCCACCCA", "PBM E-score": -0.132}
{"sequence": "GAAGATAC", "PBM E-score": 0.0856}
{"sequence": "TAATGTCA", "PBM E-score": -0.0654}
{"sequence": "AGGACAGG", "PBM E-score": -0.0615}
{"sequence": "CAAAAATG", "PBM E-score": 0.145}
{"sequence": "AAAGGTTG", "PBM E-score": 0.0238}
{"sequence": "CCTGACGC", "PBM E-score": -0.333}
{"sequence": "AACGTTTG", "PBM E-score": 0.0521}
{"sequence": "CAGCTAGA", "PBM E-score": -0.072}
{"sequence": "GTGCTCTA", "PBM E-score": -0.0204}
{"sequence": "AGATAACA", "PBM E-score": 0.16}
{"sequence": "CATAGAAC", "PBM E-score": -0.203}
{"sequence": "CGTGCATC", "PBM E-score": -0.179}
{"sequence": "AGTAAAAC", "PBM E-score": 0.13}
{"sequence": "ACTGCCGC", "PBM E-score": -0.0183}
{"sequence": "ATCGTAAG", "PBM E-score": 0.0975}
{"sequence": "CCCGCGAA", "PBM E-score": -0.0481}
{"sequence": "GAAGATCC", "PBM E-score": -0.0385}
{"sequence": "CGGAGCTC", "PBM E-score": 0.414}
{"sequence": "CTTCCAAA", "PBM E-score": 0.183}
{"sequence": "GGACATAC", "PBM E-score": 0.0719}
{"sequence": "ACTTAGAT", "PBM E-score": 0.111}
{"sequence": "CCTTTTAC", "PBM E-score": 0.0886}
{"sequence": "AACAAATG", "PBM E-score": 0.159}
{"sequence": "TCAGGCAA", "PBM E-score": -0.0892}
{"sequence": "ATGCAGAC", "PBM E-score": -0.221}
{"sequence": "CCCATGAA", "PBM E-score": 0.015}
{"sequence": "AAAGCAAG", "PBM E-score": 0.14}
{"sequence": "GCTTAAGA", "PBM E-score": 0.00411}
{"sequence": "AAGATTCG", "PBM E-score": 0.263}
{"sequence": "AGTGATAA", "PBM E-score": 0.0533}
{"sequence": "AGCTAACG", "PBM E-score": -0.0565}
{"sequence": "CCGCTCGC", "PBM E-score": -0.0198}
{"sequence": "CGTTTGCA", "PBM E-score": 0.0681}
{"sequence": "CAATGCTA", "PBM E-score": 0.0355}
{"sequence": "CTGTCGAA", "PBM E-score": -0.12}
{"sequence": "AGGCCAAA", "PBM E-score": -0.00857}
{"sequence": "CAAGGAAC", "PBM E-score": 0.00117}
{"sequence": "CTGTTACA", "PBM E-score": -0.161}
{"sequence": "CCTCGCTA", "PBM E-score": -0.282}
{"sequence": "GCAGGACA", "PBM E-score": -0.0419}
{"sequence": "AAATAAGA", "PBM E-score": 0.125}
{"sequence": "ACCCGTTA", "PBM E-score": 0.00856}
{"sequence": "ATATAAGA", "PBM E-score": 0.293}
{"sequence": "AAGCGCTG", "PBM E-score": -0.105}
{"sequence": "CTCAAGGA", "PBM E-score": 0.0239}
{"sequence": "AAGACCTC", "PBM E-score": -0.241}
{"sequence": "ACCCATAG", "PBM E-score": -0.167}
{"sequence": "TCAGCCGA", "PBM E-score": 0.202}
{"sequence": "CCATAGCA", "PBM E-score": -0.11}
{"sequence": "CGCCACAC", "PBM E-score": -0.145}
{"sequence": "ACCTCGTA", "PBM E-score": 0.021}
{"sequence": "ATAAAACA", "PBM E-score": 0.118}
{"sequence": "TAGGGGCA", "PBM E-score": -0.264}
{"sequence": "CATACTCA", "PBM E-score": -0.0521}
{"sequence": "GCTCTTCA", "PBM E-score": -0.104}
{"sequence": "CTTTAAAC", "PBM E-score": 0.105}
{"sequence": "CGGATGAA", "PBM E-score": 0.237}
{"sequence": "AGTCGGGA", "PBM E-score": -0.124}
{"sequence": "AACCCGGC", "PBM E-score": -0.108}
{"sequence": "GACTGCGC", "PBM E-score": -0.133}
{"sequence": "ATCCATCG", "PBM E-score": 0.04}
{"sequence": "ATGTAGAG", "PBM E-score": 0.0102}
{"sequence": "CAAAATTG", "PBM E-score": 0.0231}
{"sequence": "CACAATGA", "PBM E-score": 0.032}
{"sequence": "CCCTCTAG", "PBM E-score": -0.151}
{"sequence": "AGTCTGCA", "PBM E-score": -0.215}
{"sequence": "CAGCAGCA", "PBM E-score": -0.108}
{"sequence": "ATCATATG", "PBM E-score": 0.125}
{"sequence": "AAGTCTGG", "PBM E-score": -0.258}
{"sequence": "GACTCGCA", "PBM E-score": -0.0641}
{"sequence": "GATAACGA", "PBM E-score": 0.231}
